Assay results: the RNAGym collection of RNA variant scans (doi:10.1073/pnas.2313332121)
Variants at the background level are over-represented here.

B1: TPR 5TU (parent)
chain: GGAUCUUCUCGAUCUAACAAAAAAGACAAAUCUGCCACAAAGCUUGAGAGCAUCUUCGGAUGCAGAGGCGGCAGCCUUCGGUGGCGCGAUAGCGCCAACGUUCUCAACUAUGACACGCAAAACGCGUGCUCCGUUGAAUGGAGUUUAUCAUG

Variants of: B1
Assay: polymerase ribozyme fitness, log enrichment relative to wild type (log ratio); higher = more active; in vitro selection for triplet polymerase activity
Summary of the method: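 Mutant libraries of each subunit of a heterodimeric triplet polymerase ribozyme were built by PCR and transcribed. Each library went through one round of in vitro selection in triplicate: annealing with biotinylated primer, partner subunit and triplets, frozen incubation at −7 °C, gel excision of extended constructs, streptavidin-bead capture and RT-PCR. Input and output libraries were Illumina-sequenced; only genotypes with ≥10 input reads and ≥1 read per output were kept. Fitness is log2(genotype enrichment/wild-type enrichment), using inverse-variance-weighted replicate averages.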

Point of comparison: U55G C69A A97U A119U G141A, “polymerase ribozyme fitness (log ratio)” value -1.39. Against it:
- C54U U78A A98U A113G C116G — lower, ≤ -4.2
- C54U U82C G92C C93G C131A — lower, ≤ -4.2
- C54U U90C G94A C131U — lower, ≤ -4.2
- C54U U90G A91C — lower, ≤ -4.2
- C54U U102G U135G A142C — lower, ≤ -4.2
- C54U U104G — within 0.2 log units, -1.21
- C54U U134C A138U — lower, ≤ -4.2
- C54U U135A G136C — lower, -3.76
- U55A A60C G62A U101C U135A A137G G140U — lower, ≤ -4.2
- U55A A60U G65U G88C — lower, ≤ -4.2
- U55A A60U G84U C116G A119U G140C — lower, ≤ -4.2
- U55A A64C G86U — lower, ≤ -4.2
- U55A A64G U135A — lower, ≤ -4.2
- U55A A64U U82G C108U C114A G133A A137C — lower, ≤ -4.2
- U55A A66G A73U C76G G81A C96U — lower, ≤ -4.2
- U55A A66U A73U C131G — lower, ≤ -4.2
- U55A A73G G80U G88C A91C A98C A121G U144A U151C — lower, ≤ -4.2
- U55A A73U C93G A106G — lower, ≤ -4.2
- U55A A73U C99U U145C — lower, ≤ -4.2
- U55A A89C — higher, -0.409
- U55A A89C A119C — higher, -0.892
- U55A A98U — higher, -0.0691
- U55A A107C — lower, ≤ -4.2
- U55A A137G G141A — lower, -1.96
- U55A C57A G59C G74C A106U — lower, ≤ -4.2
- U55A C57U A60G C87A A98U A107U C116A G141U — lower, ≤ -4.2
- U55A C57U G74U C93U — lower, ≤ -4.2
- U55A C57U G81A G84A — higher, -0.555
- U55A C63G C93G C114A — lower, ≤ -4.2
- U55A C69G G83A C99U A115U U151A — lower, ≤ -4.2
- U55A C69U G84A A89G G100A C118G — lower, ≤ -4.2
- U55A C69U U78A G80U A91C C96G C123G A150U — lower, ≤ -4.2
- U55A C72A C79A G86C — lower, ≤ -4.2
- U55A C72A U139C — lower, ≤ -4.2
- U55A C76A — higher, -0.81
- U55A C76A A113G A142U A150U — lower, ≤ -4.2
- U55A C76A G84U C116U A137U — lower, ≤ -4.2
- U55A C76A G88A U146G — lower, ≤ -4.2
- U55A C76G A91U A150U — lower, ≤ -4.2
- U55A C76U C85G A110C C118A — lower, ≤ -4.2
- U55A C76U C85U A91G A107G C123G C125U U134G — lower, ≤ -4.2
- U55A C79A C99U G141C — lower, ≤ -4.2
- U55A C79G G128C — lower, ≤ -4.2
- U55A C79U G94C U146A — lower, ≤ -4.2
- U55A C85A C87G — lower, ≤ -4.2
- U55A C85A C103U U135A — lower, ≤ -4.2
- U55A C85A G141C — lower, -1.86
- U55A C85G A122G A138C — lower, ≤ -4.2
- U55A C85G G88C A98U — lower, ≤ -4.2
- U55A C85U — higher, -0.644
- U55A C85U C103U — higher, -0.7
- U55A C85U G88U — lower, ≤ -4.2
- U55A C87A A137C — lower, ≤ -4.2
- U55A C87A C108G — lower, ≤ -4.2
- U55A C87A U90C — lower, ≤ -4.2
- U55A C87G — lower, ≤ -4.2
- U55A C87U A91C — lower, ≤ -4.2
- U55A C87U C93G — lower, ≤ -4.2
- U55A C87U C93U — lower, -4.13
- U55A C93U G133U G141U — lower, ≤ -4.2
- U55A C95U — higher, -0.137
- U55A C95U C131G U135C — lower, ≤ -4.2
- U55A C96G — higher, -1.04
- U55A C96G G143A — lower, -2.1
- U55A C99A U102G G117U U134A — lower, ≤ -4.2
- U55A G58A A60G A89C A91U — lower, ≤ -4.2
- U55A G58C A97G — higher, 0.512
- U55A G58U C93G — lower, -3.78
- U55A G59A C99G C129U A147C — lower, ≤ -4.2
- U55A G62C C63U G83U A89C A97U — lower, ≤ -4.2
- U55A G62U C63G C87U A98U A120U C149G — lower, ≤ -4.2
- U55A G62U G83U U90G C118U — lower, ≤ -4.2
- U55A G65A G68A C123A U144G — lower, ≤ -4.2
- U55A G65C G88U G112A U134A G140U — lower, ≤ -4.2
- U55A G67A A91U C99U — lower, ≤ -4.2
- U55A G67C C85A G86U G124U — lower, ≤ -4.2
- U55A G67C G86C A113U C125A U148C — lower, ≤ -4.2
- U55A G68A C95U U139C G143U — lower, ≤ -4.2
- U55A G68A G84U — lower, ≤ -4.2
- U55A G70C G92U A119U — lower, -3.25
- U55A G71U G117A — lower, -3.07
- U55A G74A C75A C79G C103A — lower, ≤ -4.2
- U55A G74A C85G C116G G140U — lower, ≤ -4.2
- U55A G74A U78A G80U A119U A150G — lower, ≤ -4.2
- U55A G80C — lower, ≤ -4.2
- U55A G81C G84U C116A — lower, -2.11
- U55A G83A G86A A89C C96A A113C U127C — lower, ≤ -4.2
- U55A G83U C108U G128A — lower, ≤ -4.2
- U55A G84C A113C C114A C132U — lower, ≤ -4.2
- U55A G86A G94U A107G C125U — lower, ≤ -4.2
- U55A G86C A150C — lower, ≤ -4.2
- U55A G86U A91U — lower, ≤ -4.2
- U55A G88A C103U A142U — lower, ≤ -4.2
- U55A G88A C131U — lower, ≤ -4.2
- U55A G88U — lower, -4.14
- U55A G92A G143U — lower, ≤ -4.2
- U55A G92C C103G G128A G141U — lower, ≤ -4.2
- U55A G92U G140A — lower, ≤ -4.2
- U55A G94C A121U U148G — lower, ≤ -4.2
- U55A G100C U104G G143C U148A — lower, ≤ -4.2
- U55A G126A — higher, -1.02
- U55A G126U A150C — lower, ≤ -4.2
- U55A U56A G70C U77G C85A G94A G126C U148A — lower, ≤ -4.2
- U55A U56A G71A U82G U102G — lower, ≤ -4.2
- U55A U56A G71U U82A G86A C129U A150G — lower, ≤ -4.2
- U55A U56C C63U A91C — lower, ≤ -4.2
- U55A U56G G80A — within 0.2 log units, -1.37
- U55A U61C G94U — lower, ≤ -4.2
- U55A U61G C87G U102G C125A G141C — lower, ≤ -4.2
- U55A U77G U134C U139C — lower, ≤ -4.2
- U55A U78A G92A A97G — lower, ≤ -4.2
- U55A U78G G133U G141A U144C — lower, ≤ -4.2
- U55A U82C C95G A107G G136C — lower, ≤ -4.2
- U55A U90C C95U A121U U146C — lower, ≤ -4.2
- U55A U101G A107G A138C G141A — lower, ≤ -4.2
- U55A U102C C129U C131U — lower, ≤ -4.2
- U55A U102G U135C — lower, ≤ -4.2
- U55A U135G — lower, ≤ -4.2
- U55A U139A — lower, -4.05
- U55A U146A — higher, -0.393
- U55A U146G — higher, -0.637
- U55A U148C — higher, -1.05
- U55A U151G — lower, ≤ -4.2
- U55C C57U G94A C129U A142C U146C — lower, ≤ -4.2
- U55C C75G A89G — lower, ≤ -4.2
- U55C C76G G81A C87U G140C U151A — lower, ≤ -4.2
- U55C C79A A110C C114G — lower, ≤ -4.2
- U55C C85U G88U G126U U139G — lower, ≤ -4.2
- U55C C87U C103G G140A — lower, ≤ -4.2
- U55C C93G — lower, -3.57
- U55C C95U C103A — within 0.2 log units, -1.54
- U55C G58C C85A G140C — lower, ≤ -4.2
- U55C G59A C96A — lower, -3.02
- U55C G71A C93A A107U G124A U134G — lower, ≤ -4.2
- U55C G74C G124A — lower, -4.12
- U55C U61A U82A — lower, -2.36
- U55G A60G G133U G136C — lower, ≤ -4.2
- U55G A66G A107G — lower, ≤ -4.2
- U55G A66U G94A — lower, ≤ -4.2
- U55G A73G U104A C116A U134G — lower, ≤ -4.2
- U55G A91C G141U G143A — lower, ≤ -4.2
- U55G A91G U111G G141A U145G — lower, ≤ -4.2
- U55G A91U — lower, ≤ -4.2
- U55G A91U C116G C123A G133C — lower, ≤ -4.2
- U55G A98G — higher, -0.84
- U55G A138C — lower, ≤ -4.2
- U55G C57A C76G C87G G94C C108G C114A U146A — lower, ≤ -4.2
- U55G C57G C87G — lower, ≤ -4.2
- U55G C57U U78G C85G U148C — lower, ≤ -4.2
- U55G C69U U78A A91U C93U G141A — lower, ≤ -4.2
- U55G C72G G143U — lower, ≤ -4.2
- U55G C72U A138C — lower, ≤ -4.2
- U55G C75U A110G — lower, ≤ -4.2
- U55G C76A G84U A91G C95A C116G — lower, ≤ -4.2
- U55G C76G G92C — lower, ≤ -4.2
- U55G C85A A137G — lower, ≤ -4.2
- U55G C87A C93A C99U U134A — lower, ≤ -4.2
- U55G C87U G92A U101G G143U — lower, -3.33
- U55G C93U G140U U148C — lower, ≤ -4.2
- U55G C95U C105U C116A A147C — lower, ≤ -4.2
- U55G C95U U148G — lower, ≤ -4.2
- U55G C96U C108G G152U — lower, ≤ -4.2
- U55G G58C C76U C85U C149A — lower, ≤ -4.2
- U55G G59A G83A A98C C116G U127G — lower, -4.04
- U55G G59C G86A C103U U146C — lower, -2.47
- U55G G65U G84U C85U G86A A121U — lower, ≤ -4.2
